# In article PMC12820563, “FoxP3 forms a head-to-head dimer in vivo and stabilizes its multimerization on adjacent microsatellites”:
# The list shows a part of the results.
# Molecular target: T1, MBP-FoxP1dN (Mus musculus, UniProt P58462 326-579)
# T1 sequence: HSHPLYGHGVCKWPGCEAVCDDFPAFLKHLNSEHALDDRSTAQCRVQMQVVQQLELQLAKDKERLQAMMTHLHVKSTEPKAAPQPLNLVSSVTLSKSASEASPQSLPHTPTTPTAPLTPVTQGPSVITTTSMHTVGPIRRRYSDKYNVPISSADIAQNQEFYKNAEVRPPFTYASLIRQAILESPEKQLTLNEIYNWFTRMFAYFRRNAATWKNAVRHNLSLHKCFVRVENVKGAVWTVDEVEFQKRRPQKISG
# Assay: PD-seq (MBP pull-down with sequencing); 20 mM Tris-HCl pH 7.5, 100 mM NaCl, 1.5 mM MgCl2, 0.4 uM protein, 0.1 uM dsDNA library, 30 min, room temperature, amylose pull-down; high values mean tight binding
# Conditions: protein: recombinant; tags: His6-MBP; chain copies: 2; dsDNA, one strand shown
# Procedure, shortened: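 Binding is given as reads-per-million enrichment, pull-down over input, with replicates pooled. The bait was an N-terminus-lacking mouse FoxP3 or FoxP1 fragment with a His6-MBP tag, expressed in E. coli and used at 0.4 µM with 0.1 µM Klenow-filled degenerate double-stranded DNA library for 30 min at room temperature in Tris pH 7.5 buffer with NaCl and MgCl2. Amylose resin pull-down with three washes was followed by proteinase K release, PCR barcoding and Illumina sequencing.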
row,Sequence,binding signal
1,GATGATTGTTCTCCCAGCTGATGAATTTCAAGTATCGAGTAAACAAATTTTCCTAATCTTTCTGTTCAAGCGCCATCTAC,0.952 RPM ratio (pull-down/input)
2,GATGATTGTTCTCCCAGCTGATGAATTGGGGCCATCGAGTAAACAAATTTTCCTAATCTTTCTGTTCAAGCGCCATCTAC,0.831 RPM ratio (pull-down/input)
3,GATGATTGTTCTCCCAGCTGATGAATTGTTGCGCTCGAGTAAACAAATTTTCCTAATCTTTCTGTTCAAGCGCCATCTAC,1.48 RPM ratio (pull-down/input)
4,GATGATTGTTCTCCCAGCTGATGAATTGGTTTTATCGAGTAAACAAATTTTCCTAATCTTTCTGTTCAAGCGCCATCTAC,1.14 RPM ratio (pull-down/input)
5,GATGATTGTTCTCCCAGCTGATGAATTTCTATATTCGAGTAAACAAATTTTCCTAATCTTTCTGTTCAAGCGCCATCTAC,1.11 RPM ratio (pull-down/input)
6,GATGATTGTTCTCCCAGCTGATGAATTACGTGGATCGAGTAAACAAATTTTCCTAATCTTTCTGTTCAAGCGCCATCTAC,0.967 RPM ratio (pull-down/input)
7,GATGATTGTTCTCCCAGCTGATGAATTTGCTGAGTCGAGTAAACAAATTTTCCTAATCTTTCTGTTCAAGCGCCATCTAC,0.904 RPM ratio (pull-down/input)
8,GATGATTGTTCTCCCAGCTGATGAATTAGAGTCGTCGAGTAAACAAATTTTCCTAATCTTTCTGTTCAAGCGCCATCTAC,0.879 RPM ratio (pull-down/input)
9,GATGATTGTTCTCCCAGCTGATGAATTGCCAGAGTCGAGTAAACAAATTTTCCTAATCTTTCTGTTCAAGCGCCATCTAC,0.869 RPM ratio (pull-down/input)
10,GATGATTGTTCTCCCAGCTGATGAATTCGCAATTTCGAGTAAACAAATTTTCCTAATCTTTCTGTTCAAGCGCCATCTAC,1.05 RPM ratio (pull-down/input)
11,GATGATTGTTCTCCCAGCTGATGAATTTTCGACCTCGAGTAAACAAATTTTCCTAATCTTTCTGTTCAAGCGCCATCTAC,0.818 RPM ratio (pull-down/input)
12,GATGATTGTTCTCCCAGCTGATGAATTATCATCCTCGAGTAAACAAATTTTCCTAATCTTTCTGTTCAAGCGCCATCTAC,0.855 RPM ratio (pull-down/input)
13,GATGATTGTTCTCCCAGCTGATGAATTCCCGGTCTCGAGTAAACAAATTTTCCTAATCTTTCTGTTCAAGCGCCATCTAC,0.751 RPM ratio (pull-down/input)
14,GATGATTGTTCTCCCAGCTGATGAATTCATTTACTCGAGTAAACAAATTTTCCTAATCTTTCTGTTCAAGCGCCATCTAC,1.05 RPM ratio (pull-down/input)
15,GATGATTGTTCTCCCAGCTGATGAATTCACTCCGTCGAGTAAACAAATTTTCCTAATCTTTCTGTTCAAGCGCCATCTAC,0.838 RPM ratio (pull-down/input)
16,GATGATTGTTCTCCCAGCTGATGAATTATACAGATCGAGTAAACAAATTTTCCTAATCTTTCTGTTCAAGCGCCATCTAC,1.14 RPM ratio (pull-down/input)
17,GATGATTGTTCTCCCAGCTGATGAATTCTTTCTGTCGAGTAAACAAATTTTCCTAATCTTTCTGTTCAAGCGCCATCTAC,0.802 RPM ratio (pull-down/input)
18,GATGATTGTTCTCCCAGCTGATGAATTCGCGTGTTCGAGTAAACAAATTTTCCTAATCTTTCTGTTCAAGCGCCATCTAC,0.899 RPM ratio (pull-down/input)
19,GATGATTGTTCTCCCAGCTGATGAATTAGAGGTATCGAGTAAACAAATTTTCCTAATCTTTCTGTTCAAGCGCCATCTAC,0.945 RPM ratio (pull-down/input)
20,GATGATTGTTCTCCCAGCTGATGAATTAAGGTGGTCGAGTAAACAAATTTTCCTAATCTTTCTGTTCAAGCGCCATCTAC,0.796 RPM ratio (pull-down/input)
21,GATGATTGTTCTCCCAGCTGATGAATTCCTCGAGTCGAGTAAACAAATTTTCCTAATCTTTCTGTTCAAGCGCCATCTAC,0.84 RPM ratio (pull-down/input)

row,Sequence,binding signal
1,GATGATTGTTCTCCCAGCTGATGAATTTGATGCTTCGAGTAAACAAATTTTCCTAATCTTTCTGTTCAAGCGCCATCTAC,1.09 RPM ratio (pull-down/input)
2,GATGATTGTTCTCCCAGCTGATGAATTGAGCACTTCGAGTAAACAAATTTTCCTAATCTTTCTGTTCAAGCGCCATCTAC,0.845 RPM ratio (pull-down/input)
3,GATGATTGTTCTCCCAGCTGATGAATTCTCTGGGTCGAGTAAACAAATTTTCCTAATCTTTCTGTTCAAGCGCCATCTAC,0.818 RPM ratio (pull-down/input)
4,GATGATTGTTCTCCCAGCTGATGAATTGGCTCTCTCGAGTAAACAAATTTTCCTAATCTTTCTGTTCAAGCGCCATCTAC,0.875 RPM ratio (pull-down/input)
5,GATGATTGTTCTCCCAGCTGATGAATTTAGCCTTTCGAGTAAACAAATTTTCCTAATCTTTCTGTTCAAGCGCCATCTAC,0.954 RPM ratio (pull-down/input)
6,GATGATTGTTCTCCCAGCTGATGAATTTGCACATTCGAGTAAACAAATTTTCCTAATCTTTCTGTTCAAGCGCCATCTAC,1.12 RPM ratio (pull-down/input)
7,GATGATTGTTCTCCCAGCTGATGAATTTTCGCTGTCGAGTAAACAAATTTTCCTAATCTTTCTGTTCAAGCGCCATCTAC,0.829 RPM ratio (pull-down/input)
8,GATGATTGTTCTCCCAGCTGATGAATTCACACTATCGAGTAAACAAATTTTCCTAATCTTTCTGTTCAAGCGCCATCTAC,1.02 RPM ratio (pull-down/input)
9,GATGATTGTTCTCCCAGCTGATGAATTAATGGAGTCGAGTAAACAAATTTTCCTAATCTTTCTGTTCAAGCGCCATCTAC,0.872 RPM ratio (pull-down/input)
10,GATGATTGTTCTCCCAGCTGATGAATTGCTCGTGTCGAGTAAACAAATTTTCCTAATCTTTCTGTTCAAGCGCCATCTAC,0.971 RPM ratio (pull-down/input)
11,GATGATTGTTCTCCCAGCTGATGAATTGTAGGCGTCGAGTAAACAAATTTTCCTAATCTTTCTGTTCAAGCGCCATCTAC,1 RPM ratio (pull-down/input)
12,GATGATTGTTCTCCCAGCTGATGAATTACCGTCTTCGAGTAAACAAATTTTCCTAATCTTTCTGTTCAAGCGCCATCTAC,0.947 RPM ratio (pull-down/input)
13,GATGATTGTTCTCCCAGCTGATGAATTGCCCTCGTCGAGTAAACAAATTTTCCTAATCTTTCTGTTCAAGCGCCATCTAC,0.855 RPM ratio (pull-down/input)
14,GATGATTGTTCTCCCAGCTGATGAATTCACGGGATCGAGTAAACAAATTTTCCTAATCTTTCTGTTCAAGCGCCATCTAC,0.827 RPM ratio (pull-down/input)
15,GATGATTGTTCTCCCAGCTGATGAATTGGCGACATCGAGTAAACAAATTTTCCTAATCTTTCTGTTCAAGCGCCATCTAC,0.972 RPM ratio (pull-down/input)
16,GATGATTGTTCTCCCAGCTGATGAATTCCAGGGCTCGAGTAAACAAATTTTCCTAATCTTTCTGTTCAAGCGCCATCTAC,0.734 RPM ratio (pull-down/input)
17,GATGATTGTTCTCCCAGCTGATGAATTGCGCCAATCGAGTAAACAAATTTTCCTAATCTTTCTGTTCAAGCGCCATCTAC,1.11 RPM ratio (pull-down/input)
18,GATGATTGTTCTCCCAGCTGATGAATTAAAGTATTCGAGTAAACAAATTTTCCTAATCTTTCTGTTCAAGCGCCATCTAC,1.04 RPM ratio (pull-down/input)
19,GATGATTGTTCTCCCAGCTGATGAATTCACACCGTCGAGTAAACAAATTTTCCTAATCTTTCTGTTCAAGCGCCATCTAC,0.899 RPM ratio (pull-down/input)
20,GATGATTGTTCTCCCAGCTGATGAATTGCTACATTCGAGTAAACAAATTTTCCTAATCTTTCTGTTCAAGCGCCATCTAC,1.21 RPM ratio (pull-down/input)
21,GATGATTGTTCTCCCAGCTGATGAATTTTCGATTTCGAGTAAACAAATTTTCCTAATCTTTCTGTTCAAGCGCCATCTAC,1.06 RPM ratio (pull-down/input)

row,Sequence,binding signal
1,GATGATTGTTCTCCCAGCTGATGAATTTGGCGTGTCGAGTAAACAAATTTTCCTAATCTTTCTGTTCAAGCGCCATCTAC,0.932 RPM ratio (pull-down/input)
2,GATGATTGTTCTCCCAGCTGATGAATTGTCCACTTCGAGTAAACAAATTTTCCTAATCTTTCTGTTCAAGCGCCATCTAC,0.978 RPM ratio (pull-down/input)
3,GATGATTGTTCTCCCAGCTGATGAATTCCCTTGTTCGAGTAAACAAATTTTCCTAATCTTTCTGTTCAAGCGCCATCTAC,0.835 RPM ratio (pull-down/input)
4,GATGATTGTTCTCCCAGCTGATGAATTAATTTTTTCGAGTAAACAAATTTTCCTAATCTTTCTGTTCAAGCGCCATCTAC,0.943 RPM ratio (pull-down/input)
5,GATGATTGTTCTCCCAGCTGATGAATTCAATAACTCGAGTAAACAAATTTTCCTAATCTTTCTGTTCAAGCGCCATCTAC,1.17 RPM ratio (pull-down/input)
6,GATGATTGTTCTCCCAGCTGATGAATTGTTCCAATCGAGTAAACAAATTTTCCTAATCTTTCTGTTCAAGCGCCATCTAC,1.22 RPM ratio (pull-down/input)
7,GATGATTGTTCTCCCAGCTGATGAATTACGTTTTTCGAGTAAACAAATTTTCCTAATCTTTCTGTTCAAGCGCCATCTAC,1.23 RPM ratio (pull-down/input)
8,GATGATTGTTCTCCCAGCTGATGAATTCCGTGTGTCGAGTAAACAAATTTTCCTAATCTTTCTGTTCAAGCGCCATCTAC,0.919 RPM ratio (pull-down/input)
9,GATGATTGTTCTCCCAGCTGATGAATTCCGTTCCTCGAGTAAACAAATTTTCCTAATCTTTCTGTTCAAGCGCCATCTAC,0.754 RPM ratio (pull-down/input)
10,GATGATTGTTCTCCCAGCTGATGAATTGGAAGCATCGAGTAAACAAATTTTCCTAATCTTTCTGTTCAAGCGCCATCTAC,1.05 RPM ratio (pull-down/input)
11,GATGATTGTTCTCCCAGCTGATGAATTCGGGGATTCGAGTAAACAAATTTTCCTAATCTTTCTGTTCAAGCGCCATCTAC,0.822 RPM ratio (pull-down/input)
12,GATGATTGTTCTCCCAGCTGATGAATTGGATCTTTCGAGTAAACAAATTTTCCTAATCTTTCTGTTCAAGCGCCATCTAC,0.852 RPM ratio (pull-down/input)
13,GATGATTGTTCTCCCAGCTGATGAATTCTGATGCTCGAGTAAACAAATTTTCCTAATCTTTCTGTTCAAGCGCCATCTAC,1.06 RPM ratio (pull-down/input)
14,GATGATTGTTCTCCCAGCTGATGAATTAGTTCTTTCGAGTAAACAAATTTTCCTAATCTTTCTGTTCAAGCGCCATCTAC,0.939 RPM ratio (pull-down/input)
15,GATGATTGTTCTCCCAGCTGATGAATTCAGACCTTCGAGTAAACAAATTTTCCTAATCTTTCTGTTCAAGCGCCATCTAC,0.799 RPM ratio (pull-down/input)
16,GATGATTGTTCTCCCAGCTGATGAATTACAATCCTCGAGTAAACAAATTTTCCTAATCTTTCTGTTCAAGCGCCATCTAC,1.21 RPM ratio (pull-down/input)
17,GATGATTGTTCTCCCAGCTGATGAATTCCGAGTTTCGAGTAAACAAATTTTCCTAATCTTTCTGTTCAAGCGCCATCTAC,0.777 RPM ratio (pull-down/input)
18,GATGATTGTTCTCCCAGCTGATGAATTCCGTTGATCGAGTAAACAAATTTTCCTAATCTTTCTGTTCAAGCGCCATCTAC,0.963 RPM ratio (pull-down/input)
19,GATGATTGTTCTCCCAGCTGATGAATTTGGGACCTCGAGTAAACAAATTTTCCTAATCTTTCTGTTCAAGCGCCATCTAC,0.812 RPM ratio (pull-down/input)
20,GATGATTGTTCTCCCAGCTGATGAATTACGGACATCGAGTAAACAAATTTTCCTAATCTTTCTGTTCAAGCGCCATCTAC,1.02 RPM ratio (pull-down/input)
21,GATGATTGTTCTCCCAGCTGATGAATTTCAAAATTCGAGTAAACAAATTTTCCTAATCTTTCTGTTCAAGCGCCATCTAC,0.891 RPM ratio (pull-down/input)
